Assay results from ChEMBL document CHEMBL4888484, “Replenishing the malaria drug discovery pipeline: Screening and hit evaluation of the MMV Hit Generation Library 1 (HGL1) against asexual blood stage Plasmodium falciparum ,using a nano luciferase reporter read-out” (2022).
Screen size: about 150,000 compounds; about 540 (0.36%) showed an effect of 50% or more. This is one part of the list.

test system: Plasmodium falciparum; assay: Primary screen in NF54 nanoGlo assay, in single point, at 2uM, 72h; a lower Z score goes with more inhibition; assay type: functional, Erythrocyte; details: timepoint 72 hour

Row | SMILES | % Inhibition | Z score
1 | CC1CC(NC(C)c2ccccc2OCc2ccccc2)CCO1 (stereo not given) | -2% | 0.24
2 | O=C(NCc1ccc(F)cc1)N1CC(Oc2cccc(C(F)(F)F)n2)C1 | -3% | 0.4
3 | OCCN(Cc1cccnc1)Cc1cc(Cl)cc2c1OCC2 | 7% | -0.6
4 | CCOc1cc(C(=O)N[C@H]2CCS(=O)(=O)C2)ncn1 | -2% | 0.29
5 | O=C1CCN(C(=O)[C@H]2CCCO2)C2(CCC2)C1 | -5% | 0.95
6 | CC(C)=CCN1CCN(C(=O)c2ccc(Cl)cc2)[C@H]2CS(=O)(=O)C[C@H]21 | -2% | 0.37
7 | COc1cccc(Cn2c(=O)c3sccc3n(CC(=O)N3CCCCC3)c2=O)c1 | 31% | -3.53
8 | CC(C)c1cnc(N[C@H]2CCN(CC(=O)N(C)C)C[C@@H]2O)nc1 | -1% | 0.2
9 | Cc1nc(CNCc2nc(C)c(C)n2C)cs1 | -6% | 0.79
10 | Cc1ccc(F)c(N2CCC(NC(=O)[C@@H]3C[C@H]3c3cnn(C)c3)CC2)c1 | -10% | 1.7
11 | O=C(NC1CCOCC1)C1=NN(c2ccccc2)C(=O)CC1 | -4% | 0.61
12 | COc1ccc(C[C@@]2(CCC(=O)NCC3(O)CCCCC3)CCC(=O)N2)cc1OC | 2% | -0.28
13 | CCn1ncc2ccc(N[C@@H](C)C3CCS(=O)(=O)CC3)cc21 | -7% | 0.73
14 | CCOc1cc(N2CCOCC2)c(OCC)cc1Nc1nc(C(F)(F)F)nc2cc(OC)ccc12 | -4% | 0.45
15 | CN1CCCC[C@@H]1COc1nccs1 | -3% | 0.46
16 | Cc1cccc(CC(=O)N2CC(n3ccnn3)C2)c1 | -10% | 1.59
17 | CS(=O)(=O)C1(CNC(=O)[C@H]2CCn3cncc3C2)CCCC1 | -9% | 1.2
18 | COc1ncc(Br)cc1CNC(=O)Nc1ncn(C(C)(C)C)n1 | -4% | 0.41
19 | O=C(Nc1ccc2c(c1)OCO2)N1C[C@H]2CCN(Cc3ccccn3)[C@H]2C1 | -8% | 0.7
20 | O=C(O)c1sc2ccccc2c1CN1CCOC[C@@]12CCOC2 | -10% | 2.02
21 | CCc1cc(=O)[nH]c(-n2nc(C3CC3)cc2NC(=O)C2CCCCC2)n1 | 86% | -14.68
22 | CC(=O)N1C[C@H]2CC[C@@H](C1)N(C(=O)c1ccc(F)c(C)c1)C2 | -9% | 0.97

Row | SMILES | % Inhibition | Z score
23 | CCN(C)C(=O)Nc1c(C)cccc1Cl | 0% | 0.09
24 | C[C@H]1CCCCN1CCNC(=O)CCc1ccc2ccn(C)c2c1 | -8% | 0.94
25 | NC(=O)[C@H]1CCN(c2ncccc2S(=O)(=O)N2CCCCC2)C1 | -11% | 2
26 | Cc1cc(=O)n(CCc2ccccc2)c(C)c1C(=O)NCCc1ccccc1 | -17% | 2.15
27 | CC(C)(C)CC(=O)N1CC[C@@H](CC(=O)O)[C@@H](CCN2CCN(c3ccccc3)CC2)C1 | 30% | -3.41
28 | CCc1noc(C)c1NC(=O)NCCc1cncc(C)n1 | 7% | -1.32
29 | CC(C)OCC(=O)Nc1ncc(S(=O)(=O)NC(C)(C)C)s1 | 8% | -0.93
30 | COCCn1ccc2ccn(Cc3ccc(F)c(F)c3)c(=O)c21 | -19% | 1.65
31 | Cc1cccc(CCC(=O)N[C@H]2CCOC3(CC(C(=O)O)C3)C2)c1 (stereo not given in full) | -13% | 2.06
32 | COCCCn1c(-c2ccco2)nnc1N(C)Cc1ccc(OC)c(OC(F)F)c1 | -5% | 0.78
33 | c1cc(C2CCCC2)nc(-c2cn[nH]c2)n1 | 0% | -0.05
34 | CC(C)(C)CC(C)(C)NC(=O)[C@@H]1CCCO1 | 11% | -1.5
35 | CC(C)(C)n1nc(C2CCCC2)nc1Cn1ccnn1 | 3% | -0.42
36 | CCc1ccc([C@@H]2CCCCCN2CC(=O)NCC#N)o1 | -9% | 1.17
37 | CCc1nc(CCNC(=O)N2CCC[C@@]3(CCC(=O)N(CCO)C3)C2)no1 | 3% | -0.66
38 | NCC1CCCN1C(=O)C1CC1c1ccccc1OC(F)(F)F (stereo not given) | 5% | -0.63
39 | Cc1ncc(C(=O)NS(=O)(=O)c2ccc(F)cc2)s1 | -13% | 1.61
40 | O=S1(=O)C[C@@H]2[C@H](C1)N(Cc1ccc(OC(F)F)cc1)CCN2CCO | -4% | 0.76
41 | Cc1ccc(Cn2ccc(NC(=O)c3cc(C4CC4)nc4c3c(C3CC3)nn4-c3ccccc3)n2)cc1 | 0% | 0.05
42 | CCCC(=O)N1CCC(OC(=O)c2nccc3ccccc23)CC1 | -3% | 0.33
43 | CCC(NC(=O)Cc1ccoc1)C1CCCO1 (stereo not given) | 19% | -2.43
44 | Cc1ccnn2cc3c(=O)n(C)c(=O)n(C)c3c12 | -9% | 1.4

Row | SMILES | % Inhibition | Z score
45 | Cc1cc(C)nc(CNc2nnc(C(C)(C)C)o2)n1 | -10% | 1.8
46 | CCOc1ccc(NC(=O)N2CCCC[C@H]2c2nn(CC)c3c2COCC3)cc1 | -1% | 0.19
47 | O=C1OCC[C@H]2CN(c3ccncc3F)CCN12 | -8% | 1.21
48 | CC(C)c1cc(N2CC(=O)N[C@@H](C)C2)n2ncnc2n1 | 1% | -0.15
49 | NC(=O)[C@H]1CCCN(Cc2cc(F)cc3c2OCOC3)C1 | -12% | 1.68
50 | Cc1ocnc1C(=O)NCCn1nc(C(F)(F)F)cc1C | -7% | 1.1
51 | COc1ccc(OC)c(-c2ncc(NC(=O)[C@@H]3COc4ccccc4O3)s2)c1 | -11% | 1.7
52 | O=C(c1nccc2ccccc12)N1CCC(C(=O)N2CCC3(CCCCO3)CC2)CC1 | -10% | 1.33
53 | COCCCN1C(=O)c2ccc(C(=O)Nc3ccc(Oc4ccc5ccccc5c4)cc3)cc2C1=O | 1% | -0.1
54 | Cn1cc(Cl)c(C(=O)N(Cc2ccncc2)C[C@@H]2CCC(=O)N2)n1 | 1% | -0.16
55 | CC(C)CCNC(=O)NCc1nnc(C(=O)Nc2ccc3c(c2)OCO3)s1 | 13% | -1.48
56 | CCN(CC)c1onc(-c2ccccc2)c1CN(Cc1ccc(F)cc1)C(=O)COC | -12% | 2.31
57 | Cc1cccc(CN2CCN3CCN(S(=O)(=O)c4ccccc4)CC[C@H]3C2=O)c1 | -21% | 2.8
58 | O=C(CN1CCN(Cn2cnc3ccccc32)CC1)Nc1ccccc1C(F)(F)F | -4% | 0.78
59 | Cc1cccc(C)c1NC(=O)N1CCCC2CC21 (stereo not given) | -7% | 0.93
60 | Nc1ccc(C(=O)Oc2ccccc2-c2ccccc2OC(=O)c2ccc(N)cc2)cc1 | -8% | 1.18
61 | COc1ccc(N2CCN(C(=O)c3ccc4c(c3)CCN4S(=O)(=O)c3ccccc3)CC2)cc1 | -8% | 1.47
62 | COc1ccc([C@H]2CN(C(=O)CN(C)Cc3ccc(F)cc3)C[C@@H]2N)cc1 | 1% | -0.15
63 | O=C(OC1CCCCCCC1)c1cccc(-n2cnnn2)c1 | -4% | 0.51
64 | O=C(CCc1cccs1)N1CCN(Cc2ccc3c(c2)OCO3)CC1 | -11% | 1.37
65 | CC(C)[C@H]1C(=O)N(C)CCN1S(=O)(=O)N1CCCC1 | 1% | -0.3
66 | CC[C@H](C)NC(=O)c1c(C)c(N2CCOCC2)c(C)n1Cc1cccc(C)c1 | 4% | -0.65

Row | SMILES | % Inhibition | Z score
67 | CCn1ccnc1CN1CCn2c(Cl)ccc2[C@@H]1C | -1% | 0.06
68 | CC(C)C[C@@H]1NC(=O)[C@H]2Cc3ccccc3CN2C1=O | 0% | 0.06
69 | COCCCn1c(C)cc(C(=O)N2CCC[C@H](c3[nH]ccc3C(N)=O)C2)c1C | 6% | -0.69
70 | O=S(=O)(c1ccc(Oc2ccc(F)c(Cl)c2)nc1)N1CCOCC1 | -13% | 1.99
71 | CN(C)C(=O)CN1CC[C@]2(CCCO2)CCC1=O | 2% | -0.25
72 | Cc1cc(C)nc(-c2ccc(C(=O)N3CC[C@H]4CC[C@@H](C3)N4C)cc2)n1 | -5% | 0.95
73 | Cc1c(CNC(=O)CNC(=O)N(C)C)cnn1C | -18% | 2.36
74 | c1nc2c(c(N3CCC4(CCCC4)C3)n1)CCN([C@H]1CCCNC1)CC2 | 0% | -0.02
75 | Cc1nc2c(s1)CCC[C@@H]2NCc1nnc(-c2ccc(C)n2C)o1 | -4% | 0.57
76 | C[C@H](NC(=O)CCCn1cnnn1)C(C)(C)O | -5% | 1.03
77 | CN(CCO)C(=O)NCc1ccc(Br)o1 | -17% | 1.92
78 | CC(C)c1cc(N[C@H]2CC[C@H](n3cnnc3)CC2)nc(C(F)(F)F)n1 | 7% | -1.16
79 | OC[C@H](Nc1ncncc1Br)c1ccccc1F | 35% | -4.75
80 | Cc1nc(-c2ncc(C(=O)NC[C@H]3CCCO3)c(O)n2)cs1 | -19% | 1.81
81 | Cc1nn(-c2ccc(Br)cc2)c(NC(=O)N(C)[C@@H](C)c2ccccc2F)c1C | 2% | -0.23
82 | CC(C)OC1CCC(N[C@@H](C)c2ccc(Cl)s2)CC1 (stereo not given in full) | 1% | -0.08
83 | CCC[C@H](C)C(=O)Nc1ccc(F)c(Cl)c1 | -12% | 2.34
84 | CCn1ncc(NC(=O)Cn2ccc(-c3nccnc3C)n2)n1 | 10% | -1.4
85 | CCOC(=O)c1c(S(=O)(=O)N2CCC[C@H](C(=O)Nc3ccc4c(c3)OCCO4)C2)c(C)n(CC)c1C | -6% | 0.54
